Assay results as given in patent US10501552B2, “Multivalent molecules comprising DR5-binding domains” (MacroGenics, Inc., priority 2015, dated 2019).

How the values were obtained:
AsPC1 [1] = assay: […]-GLO cell viability assay with vorinostat; assay type: cell-based; conditions: AsPC1 (Pancreas); 1 μg/ml + 1 μM Vorinostat
786O [2] = assay: […]-GLO cell viability assay with vorinostat; assay type: cell-based; conditions: 786O (Kidney); 1 μg/ml + 1 μM Vorinostat
Hs746T [3] = assay: […]-GLO cell viability assay with vorinostat; assay type: cell-based; conditions: Hs746T (Stomach); 1 μg/ml + 10 μM Vorinostat
SKBR3 = assay: […]-GLO cell viability assay with vorinostat; assay type: cell-based, human; conditions: SKBR3 (Breast); 1 μg/ml + 1 μM Vorinostat
A498 = assay: MTS cell proliferation assay; assay type: cell-based; conditions: A498 (Kidney); no cross-linking antibody
Experimental: (§1) Cell lines obtained from ATCC were cultured under standard tissue culture conditions. Each cell line was plated at ˜2×10^4 cells/well (in 96-well plates), and incubated overnight in F12/DMEM media supplemented with 10% FBS. […] Cell viability was determined using Promega CellTiter 96® AQeous Non-Radioactive Cell Proliferation Assay (Cat # G5430) essentially as described in the manufacturer's instructions to assay the amount of soluble formazan produced by cellular reduction of the MTS, which is a measure of the number of viable cells in the culture. Briefly, MTS/PMS regent was added to the wells and the absorbance at 490 nm (referenced at […]) was read in a Molecular Devices ThermoMax microplate reader.
(§2) Similar studies were performed over a range of anti-DR5 mAb concentrations from ˜10^−3 nM to ˜10^2 nM. The data for COLO205 cells is provided in FIG. 13, and are representative of cell lines sensitive to the antibodies of the invention.
(§3) The cytotoxicity of tetravalent DR5-Binding Molecules of the present invention was investigated. […] His-tagged TRAIL (R&D systems) was used as a positive control.
(§4) Similar studies were performed over a range of anti-DR5 mAb concentrations from ˜10^−3 nM to ˜10^2 nM.

MDA-MB-361 [4] = assay: MTS cell proliferation assay; assay type: cell-based; conditions: MDA-MB-361 (Breast); no cross-linking antibody
Experimental: as §1, §2, §3, §4

HT29 = assay: MTS cell proliferation assay; assay type: cell-based; conditions: HT29 (Colon); no cross-linking antibody
Experimental: as §1, §2, §3, §4

PC3 = assay: MTS cell proliferation assay; assay type: cell-based; conditions: PC3 (Prostate); no cross-linking antibody
Experimental: as §1, §2, §3, §4

CaKi2 = assay: MTS cell proliferation assay; assay type: cell-based; conditions: CaKi2 (Kidney); no cross-linking antibody
Experimental: as §1, §2, §3, §4

Hs746T [5] = assay: MTS cell proliferation assay; assay type: cell-based; conditions: Hs746T (Stomach); no cross-linking antibody
Experimental: as §1, §2, §3, §4

SW948 = assay: MTS cell proliferation assay; assay type: cell-based; conditions: SW948 (Colon); no cross-linking antibody
Experimental: as §1, §2, §3, §4

AsPC1 [6] = assay: MTS cell proliferation assay; assay type: cell-based; conditions: AsPC1 (Pancreas); no cross-linking antibody
Experimental: as §1, §2, §3, §4

SKOV3 = assay: MTS cell proliferation assay; assay type: cell-based; conditions: SKOV3 (Ovary); no cross-linking antibody
Experimental: as §1, §2, §3, §4

Hs700T = assay: MTS cell proliferation assay; assay type: cell-based; conditions: Hs700T (Pancreas); no cross-linking antibody
Experimental: as §1, §2, §3, §4

NCI-N87 = assay: MTS cell proliferation assay; assay type: cell-based; conditions: NCI-N87 (Stomach); no cross-linking antibody
Experimental: as §1, §2, §3, §4

MDA-MB-175VII = assay: MTS cell proliferation assay; assay type: cell-based; conditions: MDA-MB-175VII (Breast); no cross-linking antibody
Experimental: as §1, §2, §3, §4

22RV1 = assay: MTS cell proliferation assay; assay type: cell-based; conditions: 22RV1 (Prostate); no cross-linking antibody
Experimental: as §1, §2, §3, §4

BT474 = assay: MTS cell proliferation assay; assay type: cell-based; conditions: BT474 (Breast); no cross-linking antibody
Experimental: as §1, §2, §3, §4

ES2 = assay: MTS cell proliferation assay; assay type: cell-based; conditions: ES2 (Ovary); no cross-linking antibody
Experimental: as §1, §2, §3, §4

786O [7] = assay: MTS cell proliferation assay; assay type: cell-based; conditions: 786O (Kidney); no cross-linking antibody
Experimental: as §1, §2, §3, §4

MCF7 [8] = assay: MTS cell proliferation assay; assay type: cell-based; conditions: MCF7 (Breast); no cross-linking antibody
Experimental: as §1, §2, §3, §4

Calu3 = assay: MTS cell proliferation assay; assay type: cell-based; conditions: Calu3 (Lung); no cross-linking antibody
Experimental: as §1, §2, §3, §4

MDA-MB-361 [9] = assay: […]-GLO cell viability assay with vorinostat; assay type: cell-based; conditions: MDA-MB-361 (Breast); 1 μg/ml + 10 μM Vorinostat
COLO205 [10] = assay: […]-GLO cell viability assay with vorinostat; assay type: cell-based; conditions: for Average % Ctrl: one day
Experimental: For the first study COLO205 cells were plated at 2×10^4 cells/well (in 96-well plates), and incubated overnight in F12/DMEM media supplemented with 10% FBS. […] Cell viability was determined using Promega […]-GLO® Luminescent Cell Viability Assay (Cat # G5430) essentially as described in the manufacturer's instructions to assay the amount of ATP present, which is a measure of the number of viable cells in the culture. Briefly, an […]-GLO® Reagent was added to the wells and mixed for two minutes to induce lysis and the luminescence was read in a in PerkinElmer EnVision multilabel plate reader.
Cell viability of cells treated with the test articles is normalized to the corresponding negative control (medium±vorinostat) which is set to 100% and reported in Table 12 as % of control for each test agent alone or % control for each test agent in combination with vorinostat. % of control values less than 100% indicate a reduction in viability and reflect the cytotoxicity of the test article alone or in combination with vorinostat.
The Net Gain (Average % Growth Inhibition)=% Medium Ctrl (10% FBS)−% Medium Ctrl (1/10 μM vorinostat), and represents increased cytotoxicity of the test article in combination with vorinostat over cells treated with vorinostat alone.

COLO205 [11] = assay: MTS cell proliferation assay; assay type: cell-based; conditions: COLO205 (Colon); no cross-linking antibody
Experimental: as §1, §2, §3, §4
His-tagged TRAIL (R&D systems) was used as a positive control.

MCF7 [12] = assay: […]-GLO cell viability assay with vorinostat; assay type: cell-based; conditions: MCF7 (Breast); 1 μg/ml + 10 μM Vorinostat
[13] = Vorinostat 0 μM, % Medium Ctrl (10% FBS), 10 ng/ml tetravalent molecule or 1 μg/ml DR5 mAb
[14] = Vorinostat 0.1 μM, normalized to medium + vorinostat
[15] = Vorinostat 1 μM, normalized to medium + vorinostat

B1: DR5 mAb 2 × DR5 mAb 1 Fc diabody: bispecific tetravalent E-coil/K-coil Fc diabody, wild-type IgG1 Fc; chains SEQ ID NO:122 and 124 (protein)
chain 1: DIVMTQSHKFMSTSVGDRVSITCKASQDVNTAVAWYQQKPGQSPKLLIYWASTRHTGVPDRFTGSGSGTDYTLTIKSVQAEDLTLYYCQQHYITPWTFGGGTKLEIKGGGSGGGGEVKFLESGGGLVQPGGSLKLSCVASGFDFSRYWMSWVRQAPGKGLEWIGEINPDSNTINYTPSLKDKFIISRDNAKNTLYLQMTKVRSEDTALYYCTRRAYYGNPAWFAYWGQGTLVTVSAASTKGEVAACEKEVAALEKEVAALEKEVAALEKL[sequence of human IgG1 Fc with C220S (EU numbers) omitted]
chain 2: DIVLTQSPASLAVSLGQRATISCRASKSVSSSGYSYMHWYQQKPGQPPKVLIFLSSNLDSGVPARFSGSGSGTDFTLNIHPVEDGDAATYYCQHSRDLPPTFGGGTKLEIKGGGSGGGGKVQLQQSGAELVKPGASVKLSCKASGYTFTEYILHWVKQKSGQGLEWIGWFYPGNNNIKYNEKFKDKATLTADKSSSTVYMELSRLTSEDSAVYFCARHEQGPGYFDYWGQGTTLTVSSASTKGKVAACKEKVAALKEKVAALKEKVAALKE
modifications: First Polypeptide Chain of an Exemplary DR5 mAb 2 x DR5 mAb 1 Fc diabody; Second Polypeptide Chain of an Exemplary DR5 mAb 2 x DR5 mAb 1 Fc diabody
AsPC1 [1]
  Net Gain (Average % Growth Inhibition): 12.91%
786O [2]
  Net Gain (Average % Growth Inhibition): 13.49%
Hs746T [3]
  Net Gain (Average % Growth Inhibition): 25.69%
SKBR3
  Net Gain (Average % Growth Inhibition): 37.04%
A498
  % Inhibition (Average): 74.27%
MDA-MB-361 [4]
  % Inhibition (Average): 3.61%
HT29
  % Inhibition (Average): 11.02%
PC3
  % Inhibition (Average): 10.79%
CaKi2
  % Inhibition (Average): 31.66%
Hs746T [5]
  % Inhibition (Average): 5.09%
SW948
  % Inhibition (Average): 77.91%
AsPC1 [6]
  % Inhibition (Average): 12.7%
SKOV3
  % Inhibition (Average): 9.95%
Hs700T
  % Inhibition (Average): 13.38%
NCI-N87
  % Inhibition (Average): 5.01%
MDA-MB-175VII
  % Inhibition (Average): 2.96%
22RV1
  % Inhibition (Average): 2.95%
BT474
  % Inhibition (Average): 2.62%
ES2
  % Inhibition (Average): 12.25%
786O [7]
  % Inhibition (Average): 5.13%
MCF7 [8]
  % Inhibition (Average): 6.27%
Calu3
  % Inhibition (Average): 18.01%
MDA-MB-361 [9]
  Net Gain (Average % Growth Inhibition): 80.65%
COLO205 [10]; [13]
  Average % Ctrl: 84.1%
COLO205 [10]; Vorinostat 0.1 μM
  Net Gain (Average % Growth Inhibition): 13%
COLO205 [10]; [14]
  Average % Ctrl: 70.7%
COLO205 [10]; Vorinostat 1 μM
  Net Gain (Average % Growth Inhibition): 35%
COLO205 [10]; [15]
  Average % Ctrl: 48.9%
COLO205 [11]
  % Inhibition (Average): 88.53%
MCF7 [12]
  Net Gain (Average % Growth Inhibition): 4.35%

B2: DR5 mAb 1 × DR5 mAb 2 Fc diabody: bispecific tetravalent E-coil/K-coil Fc diabody, wild-type IgG1 Fc; chains SEQ ID NO:116 and 118 (protein)
chain 1: DIVLTQSPASLAVSLGQRATISCRASKSVSSSGYSYMHWYQQKPGQPPKVLIFLSSNLDSGVPARFSGSGSGTDFTLNIHPVEDGDAATYYCQHSRDLPPTFGGGTKLEIKGGGSGGGGKVQLQQSGAELVKPGASVKLSCKASGYTFTEYILHWVKQKSGQGLEWIGWFYPGNNNIKYNEKFKDKATLTADKSSSTVYMELSRLTSEDSAVYFCARHEQGPGYFDYWGQGTTLTVSSASTKGEVAACEKEVAALEKEVAALEKEVAALEKL[sequence of human IgG1 Fc with C220S (EU numbers) omitted]
chain 2: DIVMTQSHKFMSTSVGDRVSITCKASQDVNTAVAWYQQKPGQSPKLLIYWASTRHTGVPDRFTGSGSGTDYTLTIKSVQAEDLTLYYCQQHYITPWTFGGGTKLEIKGGGSGGGGEVKFLESGGGLVQPGGSLKLSCVASGFDFSRYWMSWVRQAPGKGLEWIGEINPDSNTINYTPSLKDKFIISRDNAKNTLYLQMTKVRSEDTALYYCTRRAYYGNPAWFAYWGQGTLVTVSAASTKGKVAACKEKVAALKEKVAALKEKVAALKE
modifications: First Polypeptide Chain of an Exemplary DR5 mAb 1 x DR5 mAb 2 Fc diabody; Second Polypeptide Chain of an Exemplary DR5 mAb 1 x DR5 mAb 2 Fc diabody
AsPC1 [1]
  Net Gain (Average % Growth Inhibition): 14.27%
786O [2]
  Net Gain (Average % Growth Inhibition): 21.12%
Hs746T [3]
  Net Gain (Average % Growth Inhibition): 38.78%
SKBR3
  Net Gain (Average % Growth Inhibition): 38.50%
A498
  % Inhibition (Average): 81.47%
MDA-MB-361 [4]
  % Inhibition (Average): 5.35%
HT29
  % Inhibition (Average): 16.2%
PC3
  % Inhibition (Average): 10.54%
CaKi2
  % Inhibition (Average): 36.9%
Hs746T [5]
  % Inhibition (Average): 5.94%
SW948
  % Inhibition (Average): 78.33%
AsPC1 [6]
  % Inhibition (Average): 15.01%
SKOV3
  % Inhibition (Average): 13.02%
Hs700T
  % Inhibition (Average): 17.89%
NCI-N87
  % Inhibition (Average): 10.62%
MDA-MB-175VII
  % Inhibition (Average): 3.36%
22RV1
  % Inhibition (Average): 1.83%
BT474
  % Inhibition (Average): 3.96%
ES2
  % Inhibition (Average): 8.44%
786O [7]
  % Inhibition (Average): 5.62%
MCF7 [8]
  % Inhibition (Average): 6.03%
Calu3
  % Inhibition (Average): 15.18%
MDA-MB-361 [9]
  Net Gain (Average % Growth Inhibition): 83.21%
COLO205 [10]; [13]
  Average % Ctrl: 64.4%
COLO205 [10]; Vorinostat 0.1 μM
  Net Gain (Average % Growth Inhibition): 12%
COLO205 [10]; [14]
  Average % Ctrl: 52.6%
COLO205 [10]; Vorinostat 1 μM
  Net Gain (Average % Growth Inhibition): 20%
COLO205 [10]; [15]
  Average % Ctrl: 44.8%
COLO205 [11]
  % Inhibition (Average): 88.89%
MCF7 [12]
  Net Gain (Average % Growth Inhibition): 4.96%
